# Patent publication US20220002403A1
# B1: 3G7 (antibody)
# heavy: EVQLVESGGGVVQPGRSLRLSCAASGFTFSSYAMHWVRQAPGKGLEWVAVISYDGSNKYYADSVKGRFTISRDNSKNTLYLQMNSLRAEDTAVYYCARVGEWIQLWSPFDYWGQGTLVTVSSASTKGPSVFPLAPCSRSTSESTAALGCLVKDYFPEPVTVSWNSGALTSGVHTFPAVLQSSGLYSLSSVVTVPSSSLGTKTYTCNVDHKPSNTKVDKRV[human IgG4 Fc with S228P (EU numbers) not spelt out]
# light: DIQMTQSPSSVSASVGDRVTITCRASQGISSWLAWYQQKPGKAPKFLIYAASSLQSGVPSKFSGSGSGTDFTLTISSLQPEDFATYYCQQYNSYPPTFGGGTKVEIKRTVAAPSVFIFPPSDEQLKSGTASVVCLLNNFYPREAKVQWKVDNALQSGNSQESVTEQDSKDSTYSLSSTLTLSKADYEKHKVYACEVTHQGLSSPVTKSFNRGEC
# Molecular target: human ILT4 haplotype 5 expressed on mouse 3A9 T cells (human), Q8N423
# Assay: cell-based or functional assay
# Sequence of human ILT4 haplotype 5 expressed on mouse 3A9 T cells (human), Q8N423 (Q8N423 other isoform, or with tags, fused parts or gaps): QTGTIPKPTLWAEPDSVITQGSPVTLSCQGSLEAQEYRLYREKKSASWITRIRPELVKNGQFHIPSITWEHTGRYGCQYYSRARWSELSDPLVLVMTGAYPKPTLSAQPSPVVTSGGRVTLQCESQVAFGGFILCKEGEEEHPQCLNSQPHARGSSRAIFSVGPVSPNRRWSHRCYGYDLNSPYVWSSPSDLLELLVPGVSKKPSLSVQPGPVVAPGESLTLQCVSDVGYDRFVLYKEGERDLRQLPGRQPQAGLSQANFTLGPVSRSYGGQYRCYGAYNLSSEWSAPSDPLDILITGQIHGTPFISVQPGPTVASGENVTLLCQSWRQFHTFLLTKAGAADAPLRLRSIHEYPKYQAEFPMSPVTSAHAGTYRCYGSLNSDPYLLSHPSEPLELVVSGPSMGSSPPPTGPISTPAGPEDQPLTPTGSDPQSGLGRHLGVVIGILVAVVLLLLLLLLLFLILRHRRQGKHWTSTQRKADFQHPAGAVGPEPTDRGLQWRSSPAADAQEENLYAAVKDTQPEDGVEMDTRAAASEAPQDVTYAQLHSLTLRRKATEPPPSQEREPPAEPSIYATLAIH
binder,measurement,value
B1,"EC50 (IL-2 Repression Assay: rescue of IL-2 release from anti-CD3 stimulated ILT4 3A9 T cell transfectants, ELISA)",0.26 µg/mL
